Assay results from the supplement of paper PMC8285479.
Counter-ions that a name gives are not always drawn. ± gives the standard deviation of the averaged measurements. In all, about 1,900 compounds were measured (“normalised cell viability (NPI; 0 = phenylarsine oxide control, 1 = DMSO control)”: median about 1, lowest 2% from about 0.039 on). The list shows a part of the results.

Tested on: NCI-H1944
Assay: normalised cell viability (NPI; 0 = phenylarsine oxide control, 1 = DMSO control) (fraction of DMSO control); NCI-H1944 is a non-small cell lung cancer line; higher = more viable cells (less compound toxicity)
Settings: 6 days
[1] = glucocorticoid arm: hydrocortisone 2.75 uM co-treatment, compound 1 µM
[2] = glucocorticoid arm: hydrocortisone 2.75 uM co-treatment, compound 5 µM
[3] = glucocorticoid arm: hydrocortisone 2.75 uM pre-treated 2 days and continued, compound 1 µM
[4] = glucocorticoid arm: hydrocortisone 2.75 uM pre-treated 2 days and continued, compound 5 µM
[5] = glucocorticoid arm: vehicle, compound 1 µM
[6] = glucocorticoid arm: vehicle, compound 5 µM
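Note: CTB read-out in 384-well plates, mean of triplicate wells, normalised per plate against 1 µM phenylarsine oxide and 0.1% DMSO, compounds added 24 h after seeding.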

| Structure (SMILES) | normalised cell viability [1] | normalised cell viability [2] | normalised cell viability [3] | normalised cell viability [4] | normalised cell viability [5] | normalised cell viability [6] |
| --- | --- | --- | --- | --- | --- | --- |
| Cn1cnc2c(F)c(Nc3ccc(Br)cc3F)c(C(=O)NOCCO)cc21 | 0.655 ± 0.044 | 0.617 ± 0.026 | 0.7977 ± 0.0055 | 0.746 ± 0.012 | 0.639 ± 0.061 | 0.413 ± 0.011 |
| C#Cc1cccc(Nc2ncnc3cc(OCCOC)c(OCCO)cc23)c1 [OSI-420 (Desmethyl Erlotinib)] | 0.9597 ± 0.0064 | 0.842 ± 0.039 | 0.961 ± 0.018 | 0.866 ± 0.013 | 0.9403 ± 0.0021 | 0.827 ± 0.032 |
| C#Cc1cccc(Nc2ncnc3cc(OCCOC)c(OCCO)cc23)c1 | 0.973 ± 0.049 | 0.9 ± 0.0093 | 0.983 ± 0.0036 | 0.888 ± 0.0027 | 0.95 ± 0.014 | 0.8527 ± 0.0049 |
| CN(C(Cc1ccc(OS(=O)(=O)c2cccc3cnccc23)cc1)C(=O)N1CCN(c2ccccc2)CC1)S(=O)(=O)c1cccc2cnccc12 (centres undefined) | 1.02 ± 0.011 | 0.993 ± 0.015 | 1.007 ± 0.0058 | 0.974 ± 0.029 | 1.01 | 1.01 |
| Cc1[nH]c(=O)c(C#N)cc1-c1ccc2nccn2c1 [Olprinone hydrochloride] | 1.02 ± 0.011 | 1.02 ± 0.015 | 1.03 ± 0.032 | 1.04 ± 0.015 | 1.02 ± 0.01 | 1.02 ± 0.01 |
| CC(=O)O[C@H]1C(=O)[C@@]2(C)[C@H]([C@H](OC(=O)c3ccccc3)[C@]3(O)C[C@H](OC(=O)[C@H](O)[C@@H](NC(=O)c4ccccc4)c4ccccc4)C(C)=C1C3(C)C)[C@]1(OC(C)=O)CO[C@@H]1C[C@@H]2O [Paclitaxel; Taxol] | 0.131 ± 0.0057 | 1.03 ± 0.01 | 0.466 ± 0.032 | 1.02 ± 0.011 | 0.0302 ± 0.0049 | 1.01 ± 0.01 |
| CC(=O)O[C@H]1C(=O)[C@@]2(C)[C@H]([C@H](OC(=O)c3ccccc3)[C@]3(O)C[C@H](OC(=O)[C@H](O)[C@@H](NC(=O)c4ccccc4)c4ccccc4)C(C)=C1C3(C)C)[C@]1(OC(C)=O)CO[C@@H]1C[C@@H]2O [Taxol] | 0.122 ± 0.012 | 0.117 ± 0.015 | 0.8513 ± 0.0064 | 0.802 ± 0.051 | 0.0515 ± 0.0084 | 0.0382 ± 0.0051 |
| COC(=O)C[C@](O)(CCCC(C)(C)O)C(=O)O[C@@H]1C(OC)=C[C@]23CCCN2CCc2cc4c(cc2[C@H]13)OCO4 [Omacetaxine mepesuccinate] | 0.00277 ± 0.001 | 1.08 ± 0.026 | 0.0391 ± 0.002 | 1.03 ± 0.021 | 0.00151 ± 0.00092 | 1.017 ± 0.0058 |
| N=C(N)c1ccc(N)cc1 [4-Aminobenzamidine dihydrochloride] | 1.01 ± 0.01 | 0.988 ± 0.013 | 1.02 ± 0.011 | 0.995 ± 0.0042 | 0.991 ± 0.017 | 1.007 ± 0.0058 |
| CCCN(CCC)CCc1cccc2c1CC(=O)N2 [Ropinirole hydrochloride] | 1.003 ± 0.0058 | 0.994 ± 0.0052 | 1.02 ± 0.026 | 1.02 ± 0.017 | 0.996 ± 0.012 | 0.995 ± 0.007 |
| COc1ccc2cc([C@H](C)C(=O)O)ccc2c1 [(-)-Naproxen sodium salt] | 1 ± 0.014 | 1.02 ± 0.031 | 1.003 ± 0.0061 | 1.04 ± 0.08 | 0.9993 ± 0.0011 | 1.01 ± 0.018 |
| C[C@]12CCC(=O)C=C1[C@@H]1C[C@@H]1[C@H]1[C@@H]3[C@@H]4C[C@@H]4[C@@]4(CCC(=O)O4)[C@@]3(C)CC[C@@H]12 [Drospirenone] | 1.007 ± 0.0058 | 1.06 ± 0.023 | 1.01 ± 0.014 | 1.04 ± 0.011 | 1.007 ± 0.0058 | 0.9937 ± 0.004 |
| OCCn1cc(-c2cnc3nnn(Cc4ccc5ncccc5c4)c3n2)cn1 | 1 ± 0.01 | 1.02 ± 0.026 | 1.02 ± 0.015 | 1.02 ± 0.052 | 1.01 ± 0.011 | 1.02 ± 0.015 |
| OC1(c2ccc(Cl)cc2)CCN(Cc2c[nH]c3ccccc23)CC1 | 0.972 ± 0.021 | 0.852 ± 0.052 | 1.003 ± 0.0061 | 1.04 ± 0.086 | 0.9753 ± 0.0065 | 0.988 ± 0.01 |
| Cc1ccc(C(=O)Nc2ccc(CN3CCN(C)CC3)c(C(F)(F)F)c2)cc1C#Cc1cnc2[nH]ncc2c1 | 0.6 ± 0.016 | 0.471 ± 0.065 | 0.637 ± 0.016 | 0.788 ± 0.024 | 0.473 ± 0.018 | 0.0543 ± 0.03 |
| O=C(Nc1ccc(S(=O)(=O)Nc2ccccc2Cl)c(Cl)c1)c1ccccn1 | 1.04 ± 0.031 | 1.02 ± 0.01 | 1.02 ± 0.033 | 1.04 ± 0.032 | 1.023 ± 0.0058 | 1.017 ± 0.0058 |
| O=c1n(CCCN2CCN(c3cccc(Cl)c3)CC2)nc2ccccn12 [Trazodone hydrochloride] | 1.01 | 0.98 ± 0.018 | 0.905 ± 0.2 | 0.993 ± 0.015 | 1.017 ± 0.0058 | 1.017 ± 0.0058 |
| C=C[C@H]1CN2CC[C@H]1C[C@H]2[C@H](O)c1ccnc2ccc(OC)cc12 [Quinine sulfate] | 1.02 ± 0.01 | 1.03 ± 0.021 | 0.92 ± 0.16 | 1.07 ± 0.017 | 1.01 ± 0.01 | 1.02 ± 0.011 |
| c1ccc2c(CC3=NCCN3)cccc2c1 [Naphazoline hydrochloride] | 0.988 ± 0.01 | 0.953 ± 0.029 | 0.9967 ± 0.0058 | 0.965 ± 0.045 | 0.9937 ± 0.0025 | 0.987 ± 0.012 |
| c1ccc2c(CC3=NCCN3)cccc2c1 [Naphazoline HCl] | 1.01 ± 0.018 | 1.01 ± 0.023 | 1 ± 0.022 | 0.995 ± 0.013 | 0.9893 ± 0.0015 | 1 |
| CC(C=CC(=O)NO)=CC(C)C(=O)c1ccc(N(C)C)cc1 (centres undefined) [Trichostatin A (TSA)] | 0.0292 ± 0.0042 | -0.000733 ± 0.0048 | 0.937 ± 0.098 | 0.00269 ± 0.00055 | 0.00709 ± 0.0011 | 8.2e-05 ± 0.00089 |
| O=C(O)[C@@H]1C[C@H](C(=O)O)N1 [cis-Azetidine-2,4-dicarboxylic acid] | 0.992 ± 0.0044 | 0.97 ± 0.015 | 0.997 ± 0.012 | 1 | 0.9863 ± 0.0029 | 0.976 ± 0.011 |
| CCN(CC)CC(=O)Nc1c(C)cccc1C [Lidocaine] | 1 ± 0.019 | 1.03 ± 0.017 | 1.017 ± 0.0058 | 1.017 ± 0.0058 | 0.995 ± 0.005 | 0.987 ± 0.019 |
| CCN(CC)CC(=O)Nc1c(C)cccc1C [Lidocaine hydrochloride] | 0.985 ± 0.01 | 0.9687 ± 0.0071 | 0.995 ± 0.013 | 0.837 ± 0.23 | 0.9787 ± 0.0031 | 0.987 ± 0.02 |
